Results as given in article PMC12136788.
Some of the results follow.

T1: UNK ZnF1-3 (human, UniProt Q9C0B0 31-174)
T1 sequence: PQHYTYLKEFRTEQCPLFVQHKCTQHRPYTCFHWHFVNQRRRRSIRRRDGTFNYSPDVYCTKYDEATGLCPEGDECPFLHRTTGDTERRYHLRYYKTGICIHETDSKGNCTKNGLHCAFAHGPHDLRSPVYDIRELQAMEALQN

B1: chr7:151048522:151048523:+_ENSG00000013374_ENST00000566856|hu_mus|hu_hu_hu_mus_True|1_18 (ssRNA)
RNA: GGGAGUUCUACAGUCCGACGAUCCUGUUUCUUAUUUAUUACGAUCUUGAUGUAAUUUUCUUGAAAUCCGAAAGUUUCAGCUAUUUGACACCUCAGGUCUCUACCAGUGACAUGCAAUCGGGUCUCCAACAAGCUUUUCCUAUCCAACAGAGGAUUGAGCAUCA
B2: chr14:66974463:66974464:+_ENSMUSG00000022044_ENSMUST00000074523|mus_hu|mus_mus_mus_hu_False|58_78 (ssRNA)
RNA: GGGAGUUCUACAGUCCGACGAUCUUGUAGGACGACUUAUUCAGGGGAUCGGCCAGGAAGCAAGAGCAGAACAAGGACACUAGUGGGAGCUCCUUCAUCUUCUCUUUGUAGGCAGCAAGGGUCAUGUUUCUGGGAUCUGGUGGCCAACAGAGGAUUGAGCAUCA
B3: chr2:25130317:25130318:+_ENSMUSG00000026965_ENSMUST00000028341|mus_mus|FALSE|FALSE (ssRNA)
RNA: GGGAGUUCUACAGUCCGACGAUCGGAGUCUGGAAAGUCUCGGAUGAUGCUGAAAAGCUCCUCGAUGCGUAGGGUGGCAUAGAUACGGUAGAAGAAUCUCUGUACGUGGCAGCGCCAACGACGCAGUGUGUUCCCAGCUUCUGGCAACAGAGGAUUGAGCAUCA
B4: 86257456_86258509_4960_CDS_ENSG00000068654_ENST00000263857|human|control|control (ssRNA)
RNA: GGGAGUUCUACAGUCCGACGAUCCAAAGAUACUACCAGGGAGCUCAUGUCAAAGUUGAUCUUCAUCAGAGGGAGCUUCACUGUCACCUGGCACCACAGGCUCUCCUCGGUGUCGUACUGGUAGUCAUCUAUGAACGGGUGGAUCAACAGAGGAUUGAGCAUCA
B5: chr12:85018817:85018818:+_ENSMUSG00000010608_ENSMUST00000048155|mus_hu|motif|central (ssRNA)
RNA: GGGAGUUCUACAGUCCGACGAUCUUCUGCUUCUUCAUCAAGUACCAUGGCAACAUCAUCUAAAAUGCUCUGGGGUGAACGGUGAGCCAUAACCUUAGAACAAACAAAAUCAACUAAUGUAGCUUCUUCUUCACCUAUAUAUUCCAACAGAGGAUUGAGCAUCA
B6: chr9:99427540:99427541:-_ENSMUSG00000032468_ENSMUST00000035043|mus_hu|motif|central (ssRNA)
RNA: GGGAGUUCUACAGUCCGACGAUCUUCUCCAUCAACCAAAACAUUUACCAGGGUCAUCGAUACCUGGGGGUUUUCAAAAGCGGAAACUGAGAAACAUUUCAGUGCUUGCAUUCGAACUUUGUAGGACAGUGAGGUUAGUAGGUGCAACAGAGGAUUGAGCAUCA
B7: chr16:8843268:8843269:+_ENSMUSG00000022507_ENSMUST00000023150|perfect_dup|motif|central (ssRNA)
RNA: GGGAGUUCUACAGUCCGACGAUCACCAUGCAGAGCUAUGGCUUCCCGGAAGGGUUGCAAAUCAGUCUCUACAGAUGAGCGGGUUUCCGUUGAAGUAGCUCGGUUAGGGGACACUACAGUCAGUCUUGGGGGAGCUCUAGAGUUCAACAGAGGAUUGAGCAUCA
B8: chr7:54825262:54825263:-_ENSG00000132432_ENST00000352861|hu_hu|hu_hu_hu_mus_False|68_78 (ssRNA)
RNA: GGGAGUUCUACAGUCCGACGAUCCUGCCGGCUGGGCUCCACAAACUGCAUUACCUGCAUGACUGCCUACCCAACCGGGAUUGAGAGCGUAGAGACACGUAGCUCAGGAGAGAACCGAGCCCAACGGAACCGGAAGCUGGCAACCAACAGAGGAUUGAGCAUCA
B9: chr11:104189435:104189436:+_ENSMUSG00000018411_ENSMUST00000106992|mus_mus|FALSE|FALSE (ssRNA)
RNA: GGGAGUUCUACAGUCCGACGAUCGCCCUGGGAGCCUGAUCACAAACCCUGCUUGGCCAAGGAAGCAGACACUUCAUCGGCUAGUGUGGCAAGCUGUGGUGAGUCCACCAUGUCGAUGCUGCCCGUGGAAGACACAUUGCUGAGCAACAGAGGAUUGAGCAUCA
B10: 130618844_130618964_2048_3pUTR_ENSMUSG00000031256_ENSMUST00000033609|mouse|control|control (ssRNA)
RNA: GGGAGUUCUACAGUCCGACGAUCAAUGUCACAGAAAAUAUACACACUACGACAACAGAAUAAACUGCUUUCCUUUGGAGCAAUGGCGAUGUAAGACCUCCACCUGGCGCCAUCUGCCUCAUCCGGGGAGGUUCGGAUGCAGACCAACAGAGGAUUGAGCAUCA
B11: chr5:145543945:145543946:-_ENSG00000133706_ENST00000545646|hu_hu|hu_hu_hu_mus_True|8_48 (ssRNA)
RNA: GGGAGUUCUACAGUCCGACGAUCCUGAACGGCCAGUGGUGGGAAAUAAUCAAGCCAGUGCUCUGCUUCAGAAAACUUCACUAUGUCUUCAUCAGACAGCCCAAGGGAUUUCAUAAUGUCCCACUGGUAUUUAGAAGAUCCUGCCAACAGAGGAUUGAGCAUCA
B12: chr12:39756943:39756944:-_ENSG00000139116_ENST00000544797|hu_mus|hu_hu_hu_mus_False|28_78 (ssRNA)
RNA: GGGAGUUCUACAGUCCGACGAUCGGUUUGGCUGUUACCCCCAAGGGAAUCCUGCAAUAGUCUUGUUAGCUUAGAGUCUCUGUAAGGGACAUGGGUGGCUCUCUUGCUCUUGUCUCCCAAGGCGCUGAUUACAUUCCCAAGAGCCAACAGAGGAUUGAGCAUCA
B13: chr7:106416527:106416528:+_ENSMUSG00000055407_ENSMUST00000127492|mus_mus|motif|central (ssRNA)
RNA: GGGAGUUCUACAGUCCGACGAUCGCAGGCCCUUGUGAUGCACGGCCACGCCAUGUUAGCCACAAAGCCUUUUUGUGGUCCGGAAUCAAAUCUCCAAUCUCCCUUUAACCCCAACCCAGACCCGCCAAUGUGGUUCCCACCGCUCAACAGAGGAUUGAGCAUCA
B14: chr2:160604994:160604995:+_ENSG00000136536_ENST00000409591|hu_hu|FALSE|FALSE (ssRNA)
RNA: GGGAGUUCUACAGUCCGACGAUCCCUUGAAGAUUCAUCUCUUCCCUCUCGCCUCCUUCUAGAGAACAAAGGUGUGCAUCUAUUUCUAAGUGAGGAAGAUAACCAUGGUCCUGUAUUUCUACCUUCAGAUUCUUGGUUAAAAUUCAACAGAGGAUUGAGCAUCA

What follows are binders tested against T1, UNK ZnF1-3 (assay: nsRBNS (natural sequence RNA bind-n-seq); RBNS binding buffer (assumed for nsRBNS): 25 mM Tris pH 7.5, 150 mM KCl, 3 mM MgCl2, 0.01% Triton X-100, 500 ug/ml BSA, 20 U/ml SUPERase-In, 4 C; UNK is unkempt and MSI1 is Musashi-1; names of the RNAs are library labels; protein concentration not given here; high values mean tight binding).

Binder	binding signal [enrichment R]
B1	0.633
B2	2.22
B3	0.855
B4	1.15
B5	1.46
B6	1.39
B7	1.61
B8	0.862
B9	0.924
B10	1.28
B11	1.08
B12	0.657
B13	0.927
B14	1.23
